PubChem BioAssay AID652104 (National Center for Advancing Translational Sciences (NCATS), 2013)
About 7,200 (1.8%) of roughly 410,000 compounds were called active. The inconclusive results got no clear call from the source; some entries with a clear call stand among them for comparison. Calls follow the shape of the dose curve; as a rule, active = well fitted activation curve with a large enough effect; inconclusive = small, poorly fitted or top-dose-only effect, or another doubt; inactive = no such curve, though single readings can be large or run the other way. No potency is given beside an inconclusive call; the fits are too rough.

Experiment: qHTS of TDP-43 Inhibitors; also: nearly all actives have a fitted effect of over 50% in size; as to growth rescue (activation): % of control where 0% means no effect
Conditions: TDP-43 expressing yeast growth rescue, BacTiter-Glo, 24 h; growth rescue (activation): at 46.1 µM (top of the series) unless noted
Summary of the method: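 Yeast cells expressing TDP-43 under galactose induction are exposed to compounds for 24 hr at 30 deg C. BacTiter-Glo luminescence measures growth, so protective compounds score as activators.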
Potency is read from the fitted curve at half-maximal effect; tags tell the direction and shape of the fitted curve.

| SMILES | Potency | growth rescue (activation) |
| --- | --- | --- |
| Nc1ccc2cc3ccccc3cc2c1 | inconclusive [activator, single point] | – |
| CCOC(=O)CC/C(=N\NC(N)=O)c1ccc(OC)c(Cl)c1 | inconclusive [activator, partial curve] | – |
| COc1ccc(OCc2n[nH]c(=S)n2N)cc1 | inconclusive [activator, full curve] | – |
| COC(=O)c1ccc(Cn2cc(/C=C\[N+](=O)[O-])c3ccccc32)o1 | inconclusive [activator, single point] | – |
| COc1ccc(Cl)cc1NC(=O)CSc1ccc(-c2sc(C)nc2C)nn1 | – | inactive: 8.9% |
| CCN(C(=O)CSc1nc2ccccc2n1CC(=O)Nc1ccccc1C)c1ccccc1 | – | inactive: 6.04% |
| NC(=O)CSc1nc(-c2ccccc2Cl)ns1 | inconclusive [activator, partial curve] | – |
| Cc1ccc(NC(=S)N(Cc2cccc(Br)c2)CC2CCC(C(=O)O)CC2)cc1Cl (stereo not given) | inconclusive [activator, single point] | – |
| CC(C)CSc1ncc(-c2cccc(C(F)(F)F)c2)cn1 | inconclusive [activator, partial curve] | – |
| COC(=O)C(CC(C)C)NC(=O)c1cccs1 (stereo not given) | inconclusive [activator, partial curve, poor fit] | – |
| OCCC#Cc1ccc(N2C(c3ccsc3)=Cc3ccc(F)cc3C2c2c[nH]c3ccccc23)cc1 (stereo not given) | inconclusive [activator, partial curve] | – |
| COc1ccccc1CNC(=O)Cc1csc2nc(-c3ccc(Cl)cc3)cn12 | inconclusive [activator, partial curve] | – |
| O=C(/C=C/c1ccccc1Cl)N1CCCN(C(=O)/C=C/c2ccccc2Cl)CC1 | inconclusive [activator, single point] | – |
| Cc1nc2cc(NS(=O)(=O)c3c(C)c(C)cc(C)c3C)ccc2s1 | inconclusive [activator, single point] | – |
| CCc1ccc(N2C(=O)CC(c3cc(OC)ccc3OC)C3=C2COC3=O)cc1 (stereo not given) | inconclusive [activator, single point] | – |
| Cc1cc2oc(C(=O)Nc3sc4c(c3C(=O)NCC3CCCO3)CCC4)cc(=O)c2cc1C (stereo not given) | – | inactive: 11.7% |
| Cc1cccc(/C(N)=N/OC(=O)c2cccnc2)c1 | active: 11.2 µM | – |
| O=c1oc2c(CN3CCOCC3)c(O)ccc2cc1-c1ccc(Cl)cc1 | active: 12.6 µM | – |
| CCn1c(=O)c2cc(C(=O)NC3CCCCCC3)sc2c2ccccc21 | active: 15.8 µM | – |
| CCOc1ccc(CCNC(=O)Cn2nc(CC)n3c(cc4sc(CC)cc43)c2=O)cc1OCC | – | inactive: 10.3% |
| O=[N+]([O-])c1ccc(SCCc2ccccn2)cc1 | inconclusive [activator, single point] | – |
| Clc1ccc(CO/N=C2\CCCc3nonc32)c(Cl)c1 | inconclusive [activator, full curve, poor fit] | – |
| CCOc1cc2sc(N3CCC(C(=O)Nc4ccc(C)cc4)CC3)nc2cc1Br | – | inactive: -4.86% |
| CC1(C)CC(=O)c2sc(NC(=O)c3ccc4ncsc4c3)nc2C1 | inconclusive [activator, partial curve] | – |

| SMILES | Potency | growth rescue (activation) |
| --- | --- | --- |
| CCC1CN(C(=O)NCc2ccccc2)c2ccccc2O1 (stereo not given) | inconclusive [activator, single point] | – |
| CCC(=O)Oc1c(Sc2ccc(Cl)cc2)c(C)nn1C(C)(C)C | inconclusive [activator, full curve, poor fit] | – |
| CCN(CCCNC(=O)c1cc2cc3cc(OC)ccc3nc2s1)c1cccc(C)c1 | inconclusive [activator, partial curve] | – |
| O=C(Nc1nc2c(Cl)ccc(Cl)c2s1)C1CC1 | inconclusive [activator, full curve] | – |
| CCC(=O)Nc1ccc(N2CCOCC2)c(S(=O)(=O)Nc2ccc(Cl)cc2)c1 | inconclusive [activator, single point] | – |
| COC(=O)[C@]12CCCCC=C1N(Cc1cccc3ccccc13)C(=O)[C@H](CC(=O)NCCc1ccccc1OC)C2 | inconclusive [activator, partial curve, poor fit] | – |
| O=C(Nc1cccnc1)c1cc(-c2ccc(Br)cc2)nc2ccccc12 | inconclusive [activator, single point] | – |
| O=C(OCC(=O)C12CC3CC(CC(C3)C1)C2)c1ccc(CO)cc1 | inconclusive [activator, partial curve, poor fit] | – |
| Cc1ccc(-c2nc3sccn3c2Nc2ccccc2C)cc1 | active: 35.5 µM | – |
| CC1(C(=O)Nc2ccc(Cl)c(Cl)c2)CCN1C(=O)CCC1CCCC1 (stereo not given) | inconclusive [activator, partial curve] | – |
| Cc1ccc(C)c(N=Nc2nc3ccccc3n2C)c1 | inconclusive [activator, single point] | – |
| O=C(COc1ccccc1)N(Cc1cccnc1)c1nc2ccc(Cl)cc2s1 | active: 15.8 µM | – |
| CCN1CCCC1CN(Cc1cc2cc(C)ccc2[nH]c1=O)C(=O)Nc1ccccc1OC (stereo not given) | – | inactive: -5.75% |
| Cc1ccc(NC(=O)N2CCCC(c3nc(-c4ccc(F)cc4)no3)C2)cc1 (stereo not given) | active: 35.5 µM | – |
| CCCCn1nc(C(=O)Nc2ccc3c(c2)OCCO3)c2ccccc2c1=O | inconclusive [activator, single point] | – |
| Cc1cc(C)nc(Sc2c(C)nn(-c3ccccc3)c2C)n1 | inconclusive [activator, single point] | – |
| CN(c1ccccc1)S(=O)(=O)c1cc(C(=O)N2CCN(c3ncccn3)CC2)ccc1Cl | inconclusive [activator, single point] | – |
| CN(Cc1ccccc1)S(=O)(=O)c1ccc(F)c(C(=O)Nc2ccccc2C(F)(F)F)c1 | – | inactive: 16.9% |
| CCOC(=O)C1=C(c2ccccc2)NC(=S)NC1C (stereo not given) | inconclusive [activator, full curve, poor fit] | – |
| CCOC(=O)c1ccccc1NC(=O)CSc1nc2ncccc2o1 | – | inactive: 17% |
| CC(C)(C)OC(=O)NCCCC[C@H](NC(=O)c1nc[nH]c1C(=O)NC1CCN(C(=O)OC(C)(C)C)CC1)C(=O)OC(C)(C)C | – | inactive: 15.2% |
| CCN1CCN(Cc2c(O)ccc3oc(C)c(C(=O)Nc4ccc(OC)c(Cl)c4)c23)CC1 | – | inactive: 11.1% |
| CCOc1cc(N(CC)CC)ccc1/C=C(/C#N)c1nc2ccccc2[nH]1 | active: 7.08 µM | – |
| CCN1CCN(Cc2c(O)ccc3c(=O)c(Oc4ccccc4Cl)c(C(F)(F)F)oc23)CC1 | – | inactive: -0.992% |

| SMILES | Potency | growth rescue (activation) |
| --- | --- | --- |
| N/C(=N\OC(=O)c1cccc2ccccc12)c1ccccn1 | – | inactive: -42% |
| CSc1cc(-c2ccncc2)nc(-c2ccc(Cl)cc2)c1 | active: 11.2 µM | – |
| S=c1nc(-c2ccccc2)[nH]c2ccc(Br)cc12 | inconclusive [activator, single point] | – |
| COCCCNC(=O)/C=C/c1cccc(Cl)c1 | – | inactive: 29.9% |
| Cc1ccc(OCC(=O)N(Cc2ccccc2)C(C)(C)C)c([N+](=O)[O-])n1 | – | inactive: 2.12% |
| CCN(C[C@H]1N[C@@](Cc2ccccc2)(C(=O)OC)[C@H]2C(=O)N(Cc3ccccc3)C(=O)[C@@H]12)C(=O)COC | inconclusive [activator, partial curve] | – |
| CCc1ccc(NC(=O)[C@H](Cc2ccccc2)NC(=O)C2CCN(C(=O)[C@@H](N)CC(C)C)CC2)cc1 | inconclusive [activator, full curve, poor fit] | – |
| COc1cc(C#Cc2c(-c3cncn3C)n(C)c3ccc(-c4cc(OC)c(OC)c(OC)c4)cc23)cc(OC)c1 | inconclusive [activator, single point] | – |
| C=CCNC(=S)N/N=C/c1ccc(C(C)(C)C)cc1 | – | inactive: -5.1% [at 0.397 µM] |
| Cc1ccc(O)c(-c2cc(C(F)(F)F)[nH]n2)c1 | active: 17.8 µM | – |
| COc1cccc(-n2c(=O)c3sc4ccccc4c3n(CC(=O)Nc3ccc(F)cc3F)c2=O)c1 | – | inactive: 3.99% |
| CC1CCN(c2nc(/C=C/c3ccccc3)nc3ccccc23)CC1 | inconclusive [activator, single point] | – |
| N#Cc1c(NCCCO)nc(NCc2ccccc2)c2c1CCN(Cc1ccccc1)C2 | inconclusive [activator, single point] | – |
| O=C1CC(=O)Nc2cc(S(=O)(=O)N3CCOc4ccccc43)ccc2N1 | inactive | – |
| C/C(=C\c1ccc(F)cc1)C(=O)c1c(C)cc(C)[nH]c1=O | inconclusive [activator, partial curve] | – |
| O=CNc1cc(-c2cccc(F)c2)cn2c(-c3ccc(F)c(Cl)c3)cnc12 | active: 15.8 µM | – |
| COc1ccc(CC(=O)Nc2nnc(SCc3ccccc3)s2)cc1S(=O)(=O)N1CCOCC1 | inconclusive [activator, full curve, poor fit] | – |
| CCCN1CCN(CCCNC(=O)c2ccc3c(c2)sc2nc(-c4ccc(C)cc4)cn23)CC1 | – | inactive: -47.5% |
| CN(C(=O)c1ccc2c(c1)N(Cc1ccccc1F)C(=O)c1ccccc1S2)C1CCCCC1 | – | inactive: 10.9% |
| COc1ccccc1-c1oc2ccccc2c1C#CC(C)(C)O | active: 15.8 µM | – |
| COc1ccc2oc(C(=O)Nc3nc(-c4ccccn4)cs3)c(C)c2c1 | inconclusive [activator, single point] | – |
| COc1ccc2c(c1OC)C(=O)OC2N1C(=O)CC[C@H]1C(=O)Nc1ccc2c(c1)OCO2 (stereo not given in full) | inconclusive [activator, single point] | – |
